From the supplement of paper PMC4604168 (melanoma cell lines) come the findings set out here.

This is one part of the list. Repeats are few or missing, and single values can be far off.
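Also: cells treated in 1,536-well plates, then fixed and DAPI-stained, with nuclei counted from automated high-throughput microscope images.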

The assay has as its system A101D. The experiment in a line: cell count relative to DMSO control; melanoma cells; higher = more viable cells. As to conditions: library dose: standard library concentration; 72 h.
On to `CO[C@H]1C[C@@H]2CC[C@@H](C)[C@@](O)(O2)C(=O)C(=O)N2CCCC[C@H]2C(=O)O[C@H]([C@H](C)C[C@@H]2CC[C@@H](OCCO)[C@H](OC)C2)CC(=O)[C@H](C)/C=C(\C)[C@@H](O)[C@@H](OC)C(=O)[C@H](C)C[C@H](C)/C=C/C=C/C=C/1C` [everolimus] + C[As](C)SC[C@H](NC(=O)CC[C@H](N)C(=O)O)C(=O)NCC(=O)O [Darinaparsin] (first compound 0.1 µM, partner dose 2 µM), for which the cell count was determined as 62.4%.
As for `Cc1cc(Nc2cc(N3CCN(C)CC3)nc(Sc3ccc(NC(=O)C4CC4)cc3)n2)n[nH]1` [Tozasertib] + C[C@]12O[C@H](C[C@]1(O)CO)n1c3ccccc3c3c4c(c5c6ccccc6n2c5c31)CNC4=O [Lestaurtinib] (first compound 0.03 µM, partner dose 0.02 µM), the figure is 61.7%; as for `COCC[n+]1c2c(n(Cc3cnccn3)c1C)C(=O)c1ccccc1C2=O` + O=C(Oc1ccc([N+](=O)[O-])cc1)N1CCC(C(O)(c2ccc3c(c2)OCO3)c2ccc3c(c2)OCO3)CC1 [JZL184] (first compound 0.002 µM, partner dose 5 µM), 53.3%; as for `CN1CCN(c2ccc3nc(-c4c(N)c5c(F)cccc5[nH]c4=O)[nH]c3c2)CC1` [Dovitinib] + Cc1cc(SCc2sc(-c3ccc(C(F)(F)F)c(F)c3)nc2C)ccc1OCC(=O)O [GW0742] (first compound 0.5 µM, partner dose 10 µM), 75.1%.
Take `C=CCn1c(=O)c2cnc(Nc3ccc(N4CCN(C)CC4)cc3)nc2n1-c1cccc(C(C)(C)O)n1` + C/C(O)=C(\C#N)C(=O)Nc1cc(Br)ccc1Br [LFM-A13] (first compound 0.1 µM, partner dose 10 µM): the cell count was 58.4%.
Consider `CC(C)C[C@H](NC(=O)[C@H](Cc1ccccc1)NC(=O)c1cnccn1)B(O)O` [Bortezomib] + Cc1cc(SCc2sc(-c3ccc(C(F)(F)F)c(F)c3)nc2C)ccc1OCC(=O)O [GW0742] (first compound 0.005 µM, partner dose 10 µM), for which the cell count was 18.2%.
The value for `C[C@@H]1CCN(C(=O)CC#N)C[C@@H]1N(C)c1ncnc2[nH]ccc12` + O=C(Oc1ccc([N+](=O)[O-])cc1)N1CCC(C(O)(c2ccc3c(c2)OCO3)c2ccc3c(c2)OCO3)CC1 [JZL184] (first compound 5 µM, partner dose 5 µM) was 89.8%; that for `COc1ccc(COc2ccc(Cc3cnc(N)nc3N)cc2OC)cc1` + O=C(Oc1ccc([N+](=O)[O-])cc1)N1CCC(C(O)(c2ccc3c(c2)OCO3)c2ccc3c(c2)OCO3)CC1 [JZL184] (first compound 5 µM, partner dose 5 µM) was 91%; that for `Clc1ccc(Nc2nnc(Cc3ccncc3)c3ccccc23)cc1` [vatalanib] + C/C(O)=C(\C#N)C(=O)Nc1cc(Br)ccc1Br [LFM-A13] (first compound 10 µM, partner dose 10 µM) was 83.4%.
`Nc1ccn([C@@H]2O[C@H](CO)[C@@H](O)C2(F)F)c(=O)n1` [gemcitabine] + C[As](C)SC[C@H](NC(=O)CC[C@H](N)C(=O)O)C(=O)NCC(=O)O [Darinaparsin] (first compound 0.002 µM, partner dose 2 µM) showed a cell count of 88.2%.
The value for `Cc1cc(Nc2cc(N3CCN(C)CC3)nc(Sc3ccc(NC(=O)C4CC4)cc3)n2)n[nH]1` [Tozasertib] + Cc1cc(SCc2sc(-c3ccc(C(F)(F)F)c(F)c3)nc2C)ccc1OCC(=O)O [GW0742] (first compound 0.03 µM, partner dose 10 µM) was 86.8%.
